Here are results for 32 variants from the GPR68 mutational scans of Howard et al. (2025).

Scores whose standard error is large were omitted. The source holds two more conditions with little spread; they are left out. Read del as a deletion of the residues named and ins as an insertion between two positions. For some of these results: The concentration of ogerin is not given here.

B1: GPR68, Q15743 (parent)
chain: MGNITADNSSMSCTIDHTIHQTLAPVVYVTVLVVGFPANCLSLYFGYLQIKARNELGVYLCNLTVADLFYICSLPFWLQYVLQHDNWSHGDLSCQVCGILLYENIYISVGFLCCISVDRYLAVAHPFRFHQFRTLKAAVGVSVVIWAKELLTSIYFLMHEEVIEDENQHRVCFEHYPIQAWQRAINYYRFLVGFLFPICLLLASYQGILRAVRRSHGTQKSRKDQIQRLVLSTVVIFLACFLPYHVLLLVRSVWEASCDFAKGVFNAYHFSLLLTSFNCVADPVLYCFVSETTHRDLARLRGACLAFLTCSRTGRAREAYPLGAPEASGKSGAQGEEPELLTKLHPAFQTPNSPGSGGFPTGRLA

In data set [1] the parent is B1. In words: cAMP reporter score (Enrich2 score, wild type = 0); higher = more signal; HEK293T, FACS bins.
Data set [2] covers variants of B1. In words: surface expression score (Enrich2 score, wild type = 0); higher = more signal; HEK293T, FACS bins.

As for L157W, the cAMP reporter score in data set [1] (pH 5.5) is 0.464; in data set [1] (pH 6), 0.931; in data set [1] (pH 6, modulator: ogerin), 0.854; in data set [1] (pH 6.5, modulator: ogerin) it was -1.11. For the same variant, the surface expression score in data set [2] was determined as 1.57.

For the variant L157H, the cAMP reporter score in data set [1] (pH 5.5) was 0.902; in data set [1] (pH 6), -0.385; in data set [1] (pH 6.5, modulator: ogerin), -0.861.

Take L157C: the cAMP reporter score is -1.03 in data set [1] (pH 5.5); -0.994 in data set [1] (pH 6); -0.595 in data set [1] (pH 6, modulator: ogerin); -0.583 in data set [1] (pH 6.5, modulator: ogerin). The surface expression score in data set [2] turned out to be 1.02.

As to L157I, the cAMP reporter score is 0.473 in data set [1] (pH 5.5); 0.549 in data set [1] (pH 6); 0.87 in data set [1] (pH 6, modulator: ogerin); 0.849 in data set [1] (pH 6.5, modulator: ogerin). The surface expression score in data set [2] amounted to 0.766.

For L157K, the cAMP reporter score in data set [1] (pH 5.5) was -1.61; in data set [1] (pH 6) it was 1.42. Also, the surface expression score in data set [2] was -0.358.

For L157Y, the cAMP reporter score was -0.13 in data set [1] (pH 5.5); -1.4 in data set [1] (pH 6); 0.699 in data set [1] (pH 6, modulator: ogerin); -0.65 in data set [1] (pH 6.5, modulator: ogerin). In addition, in data set [2], the surface expression score worked out at 1.33.

Take L157N: the cAMP reporter score in data set [1] (pH 5.5) is 0.334; in data set [1] (pH 6), 0.61; in data set [1] (pH 6, modulator: ogerin), -2.18; in data set [1] (pH 6.5, modulator: ogerin), -0.417. The surface expression score in data set [2] stood at 1.84.

Take L157S: the cAMP reporter score is -1.08 in data set [1] (pH 5.5); -0.811 in data set [1] (pH 6); -1.64 in data set [1] (pH 6, modulator: ogerin); -1.1 in data set [1] (pH 6.5, modulator: ogerin). Besides, the surface expression score in data set [2] is -0.983.

On to L157Q, for which the cAMP reporter score in data set [1] (pH 5.5) is -0.824; in data set [1] (pH 6, modulator: ogerin), -1.44; in data set [1] (pH 6.5, modulator: ogerin), -0.714. Further, the surface expression score in data set [2] is -0.927.

On to L157D, for which the cAMP reporter score in data set [1] (pH 5.5) was 0.866; in data set [1] (pH 6.5, modulator: ogerin) it was -1.03. Also, the surface expression score in data set [2] was -1.64.

Turning to L157T, the cAMP reporter score in data set [1] (pH 5.5) was -1.61; in data set [1] (pH 6), -1.05; in data set [1] (pH 6, modulator: ogerin) it was -0.769; in data set [1] (pH 6.5, modulator: ogerin), -0.729. The surface expression score in data set [2] is -1.04.

Consider L157R, for which the cAMP reporter score is -0.415 in data set [1] (pH 5.5); -0.151 in data set [1] (pH 6); -1.64 in data set [1] (pH 6, modulator: ogerin); -1.27 in data set [1] (pH 6.5, modulator: ogerin). Further, the surface expression score in data set [2] is -0.934.

In the case of L157M, the cAMP reporter score was -1.56 in data set [1] (pH 5.5); -0.759 in data set [1] (pH 6); -1.68 in data set [1] (pH 6, modulator: ogerin); -1.03 in data set [1] (pH 6.5, modulator: ogerin). Further, the surface expression score in data set [2] is -2.69.

Take V162T: the cAMP reporter score in data set [1] (pH 5.5) was 0.235; in data set [1] (pH 6), -1.73; in data set [1] (pH 6, modulator: ogerin) it was -0.547; in data set [1] (pH 6.5, modulator: ogerin), -1.13. For the same variant, the surface expression score in data set [2] came to 0.941.

As for V162Q, the cAMP reporter score was -1.3 in data set [1] (pH 5.5); -0.913 in data set [1] (pH 6); -1.77 in data set [1] (pH 6, modulator: ogerin); -1.32 in data set [1] (pH 6.5, modulator: ogerin). Further, the surface expression score in data set [2] worked out at 0.464.

As for V162Y, the cAMP reporter score is -1.82 in data set [1] (pH 5.5); -1.38 in data set [1] (pH 6, modulator: ogerin); -0.44 in data set [1] (pH 6.5, modulator: ogerin). The surface expression score in data set [2] is 0.624.

As to V162P, the cAMP reporter score in data set [1] (pH 5.5) is -1.06; in data set [1] (pH 6), -0.549; in data set [1] (pH 6, modulator: ogerin), -0.725; in data set [1] (pH 6.5, modulator: ogerin), -0.658. The surface expression score in data set [2] is 0.705.

On to V162M, for which the cAMP reporter score was -0.526 in data set [1] (pH 5.5); -0.355 in data set [1] (pH 6); -0.658 in data set [1] (pH 6, modulator: ogerin); -0.569 in data set [1] (pH 6.5, modulator: ogerin). Moreover, the surface expression score in data set [2] is -0.168.

Consider V162I, for which the cAMP reporter score in data set [1] (pH 5.5) was 0.553; in data set [1] (pH 6), 0.331; in data set [1] (pH 6, modulator: ogerin), 0.404; in data set [1] (pH 6.5, modulator: ogerin) it was -0.145. Moreover, in data set [2], the surface expression score was 0.451.

Consider V162L, for which the cAMP reporter score in data set [1] (pH 5.5) was 0.905; in data set [1] (pH 6), 0.793; in data set [1] (pH 6, modulator: ogerin), 1.79; in data set [1] (pH 6.5, modulator: ogerin), 0.826. The surface expression score in data set [2] worked out at 0.821.

As to V162N, the cAMP reporter score was -0.724 in data set [1] (pH 5.5); -1.07 in data set [1] (pH 6); -0.586 in data set [1] (pH 6, modulator: ogerin); -1.15 in data set [1] (pH 6.5, modulator: ogerin). In data set [2], the surface expression score came to 1.58.

V162H: the cAMP reporter score in data set [1] (pH 5.5) was -0.393; in data set [1] (pH 6), -1.51; in data set [1] (pH 6, modulator: ogerin) it was -1.34; in data set [1] (pH 6.5, modulator: ogerin), -0.866. Further, the surface expression score in data set [2] stood at 0.936.

Regarding V162R, the cAMP reporter score in data set [1] (pH 5.5) is -1.45; in data set [1] (pH 6), -0.315; in data set [1] (pH 6, modulator: ogerin), -1.19; in data set [1] (pH 6.5, modulator: ogerin), -0.837. In addition, the surface expression score in data set [2] was 1.41.

For the variant V162K, the cAMP reporter score in data set [1] (pH 5.5) is -1.68; in data set [1] (pH 6, modulator: ogerin), -1.15; in data set [1] (pH 6.5, modulator: ogerin) it was -1.03. Also, the surface expression score in data set [2] worked out at 1.03.

Consider V162G, for which the cAMP reporter score in data set [1] (pH 5.5) was -0.807; in data set [1] (pH 6), -0.674; in data set [1] (pH 6, modulator: ogerin), -0.655; in data set [1] (pH 6.5, modulator: ogerin) it was -0.419. Also, in data set [2], the surface expression score worked out at 1.13.

For the variant V162F, the cAMP reporter score in data set [1] (pH 5.5) was -0.93; in data set [1] (pH 6) it was -0.24; in data set [1] (pH 6, modulator: ogerin), -1.39; in data set [1] (pH 6.5, modulator: ogerin), -0.973. Also, in data set [2], the surface expression score came to 1.25.

V162E: the cAMP reporter score in data set [1] (pH 5.5) is -1.56; in data set [1] (pH 6), -0.735; in data set [1] (pH 6, modulator: ogerin), -1.86; in data set [1] (pH 6.5, modulator: ogerin) it was -1.15. For the same variant, the surface expression score in data set [2] is -0.505.

Regarding V162A, the cAMP reporter score is -0.732 in data set [1] (pH 5.5); -0.922 in data set [1] (pH 6, modulator: ogerin); -1.82 in data set [1] (pH 6.5, modulator: ogerin). For the same variant, the surface expression score in data set [2] amounted to 0.318.

In the case of V162D, the cAMP reporter score is -0.679 in data set [1] (pH 5.5) and -0.339 in data set [1] (pH 6.5, modulator: ogerin). Also, the surface expression score in data set [2] is -0.192.

With V162S, the cAMP reporter score is -1.4 in data set [1] (pH 5.5); -0.798 in data set [1] (pH 6); -1.46 in data set [1] (pH 6, modulator: ogerin); -1.02 in data set [1] (pH 6.5, modulator: ogerin). For the same variant, in data set [2], the surface expression score is 0.367.

Regarding V162W, the cAMP reporter score in data set [1] (pH 5.5) is -1.81; in data set [1] (pH 6), -1.36; in data set [1] (pH 6, modulator: ogerin), -1.4; in data set [1] (pH 6.5, modulator: ogerin) it was -0.625. In addition, in data set [2], the surface expression score is 1.15.

Consider V162C, for which the cAMP reporter score in data set [1] (pH 5.5) was -1.62; in data set [1] (pH 6) it was -0.776; in data set [1] (pH 6, modulator: ogerin), -2.25; in data set [1] (pH 6.5, modulator: ogerin) it was -1.19. For the same variant, the surface expression score in data set [2] was -1.21.
